Some test systems named below: SkMel30; SkMel5; UACC257; UACC62; WM115; WM1716; WM1745; WM3526; WM3619; WM451Lu.
What all share (test): cell count relative to DMSO control; melanoma cells; higher = more viable cells
Settings in all cases: library dose: standard library concentration; 72 h

The record followed here is the supplement of paper PMC4604168 (melanoma cell lines).

SMILES strings stand for the structures. Some of the results follow. Repeats are few or missing, and single values can be far off.
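Further: cells treated in 1,536-well plates, then fixed and DAPI-stained, with nuclei counted from automated high-throughput microscope images.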

In the case of `O=S(=O)(c1ccccc1)N(CC(F)(F)F)c1ccc(C(O)(C(F)(F)F)C(F)(F)F)cc1` + CCCCCCCCCCCC1=C(O)C(=O)C=C(O)C1=O [Embelin] (first compound 7 µM, partner dose 6 µM), the cell count with SkMel30 was found to be 96.7%; with SkMel5, 83.7%; in the test on UACC257 it was 86.8%; with UACC62, 78.9%; in the test with WM115, 71.4%; with WM1716, 96.3%. The cell count was found to be 64.1% in the test with WM1745, 86.9% in the test with WM3526, 78.4% in the test on WM3619 and 99.6% in the test with WM451Lu.
For the molecule `Oc1nc(-c2ccc(C(F)(F)F)cc2)nc2c1CSCC2` + c1cc(-c2cnn3cc(-c4ccc(OCCN5CCCCC5)cc4)cnc23)ccn1 [Dorsomorphin] (first compound 10 µM, partner dose 2 µM), the cell count came out at 84.8% in the test with SkMel30; 60.5% in the test with SkMel5; 85.8% with UACC257; 70.4% in the test on UACC62; 72.1% in the test on WM115; 84.2% with WM1716. Also, the cell count is 46.8% in the test with WM1745, 79.4% in the test with WM3526, 66.9% in the test on WM3619 and 80% in the test with WM451Lu.
As for `CCN(CC)CCCCNc1ncc2cc(-c3cc(OC)cc(OC)c3)c(NC(=O)NC(C)(C)C)nc2n1` + Cc1cc([N+](=O)[O-])ccc1NS(=O)(=O)c1cc(Cl)ccc1Cl [FH535] (first compound 0.5 µM, partner dose 5 µM), the cell count in the test on SkMel30 was found to be 91.9%; in the test with SkMel5, 58.3%; in the test with UACC257, 79.9%; in the test on UACC62, 93.9%; with WM115, 86.6%; in the test with WM1716, 77.2%. In addition, the cell count with WM1745 was determined as 81%; with WM3526 it was 73.6%; in the test on WM3619, 73.5%; in the test on WM451Lu, 80.5%.
As for `O=C1NC(=O)/C(=C/c2ccc(-c3ccc(F)cc3O)o2)S1` + c1cc(-c2cnn3cc(-c4ccc(OCCN5CCCCC5)cc4)cnc23)ccn1 [Dorsomorphin] (first compound 5 µM, partner dose 2 µM), the cell count was determined as 83.5% with SkMel30; 65.9% in the test on SkMel5; 96.8% in the test with UACC257; 119% in the test on UACC62; 76.1% in the test with WM115; 99.6% with WM1716. The cell count with WM1745 was 61.2%; in the test with WM3526, 78.4%; with WM3619, 94.3%; in the test on WM451Lu, 73.8%.
On to `N#Cc1c(O)c2c(-c3ccc(-c4ccccc4O)cc3)csc2[nH]c1=O` + CCN(CC)CCCCNc1ncc2cc(-c3cc(OC)cc(OC)c3)c(NC(=O)NC(C)(C)C)nc2n1 [PD173074] (first compound 10 µM, partner dose 0.5 µM), for which the cell count in the test with SkMel30 worked out at 98.9%; in the test with SkMel5, 87%; in the test with UACC257 it was 96.6%; in the test on UACC62 it was 84.4%; with WM115 it was 94.5%; in the test on WM1716, 104%. The cell count amounted to 83.7% in the test with WM1745, 96.8% in the test on WM3526, 86.4% in the test on WM3619 and 119% in the test on WM451Lu.
On to `Cc1cc([N+](=O)[O-])ccc1NS(=O)(=O)c1cc(Cl)ccc1Cl` + Oc1nc(-c2ccc(C(F)(F)F)cc2)nc2c1CSCC2 [XAV939] (first compound 5 µM, partner dose 10 µM), for which the cell count in the test on SkMel30 came out at 72.3%; in the test with SkMel5, 54.9%; in the test with UACC257, 71%; in the test with UACC62 it was 82.3%; with WM115, 89.7%; in the test on WM1716 it was 68.8%. Moreover, the cell count in the test with WM1745 was determined as 81.5%; with WM3526, 66.7%; in the test with WM3619 it was 70.1%; with WM451Lu it was 90.1%.
For the molecule `COc1cc(N2CCC(N3CCN(C)CC3)CC2)ccc1Nc1ncc(Cl)c(Nc2ccccc2S(=O)(=O)C(C)C)n1` + CC(C)CCN1c2nc(Nc3cc(F)c(O)c(F)c3)ncc2N(C)C(=O)C1C [BID1870] (first compound 0.4 µM, partner dose 1 µM), the cell count in the test with SkMel30 is 90.6%; with SkMel5 it was 46.1%; in the test on UACC257 it was 75.7%; in the test with UACC62, 62.3%; in the test with WM115 it was 85.5%; with WM1716, 79.8%. Besides, the cell count with WM1745 came out at 28%; with WM3526, 62.5%; with WM3619 it was 64.1%; in the test on WM451Lu, 65.6%.
Regarding `COc1cc2ncnc(Nc3ccc(Oc4ccccc4)cc3)c2cc1OC` + O=C1NC(=O)/C(=C/c2ccc(-c3ccc(F)cc3O)o2)S1 [AS252424] (first compound 10 µM, partner dose 5 µM), the cell count with SkMel30 came to 91.1%; in the test on SkMel5, 73.8%; with UACC257, 99.6%; in the test on UACC62, 84.6%; with WM115, 95.6%; in the test on WM1716, 78.2%. The cell count came out at 64.9% in the test on WM1745, 64.6% in the test on WM3526, 61.7% in the test on WM3619 and 90.4% in the test on WM451Lu.
With `COC(=O)c1sccc1S(=O)(=O)Nc1ccc(Nc2ccccc2)cc1OC` + O=C1NC(=O)/C(=C/c2ccc(-c3ccc(F)cc3O)o2)S1 [AS252424] (first compound 5 µM, partner dose 5 µM), the cell count stood at 106% in the test with SkMel30; 87.5% with SkMel5; 96.5% in the test on UACC257; 106% with UACC62; 110% in the test with WM115; 102% in the test with WM1716. For the same molecule, the cell count turned out to be 89.3% in the test with WM1745, 96.8% with WM3526, 71.1% in the test on WM3619 and 97.5% with WM451Lu.
As for `COC(=O)c1sccc1S(=O)(=O)Nc1ccc(Nc2ccccc2)cc1OC` + COc1ccc(-c2ccc3c(N4CCOCC4)nc(N4C[C@@H](C)O[C@@H](C)C4)nc3n2)cc1CO [KU0063794] (first compound 5 µM, partner dose 0.1 µM), the cell count amounted to 83.9% in the test with SkMel30; 77.5% in the test on SkMel5; 100% with UACC257; 99.4% with UACC62; 88.1% in the test on WM115; 101% with WM1716. Besides, the cell count came out at 90% with WM1745, 98.5% in the test with WM3526, 76.1% in the test on WM3619 and 92.3% in the test with WM451Lu.
With `COc1ccc(-c2ccc3c(N4CCOCC4)nc(N4C[C@@H](C)O[C@@H](C)C4)nc3n2)cc1CO` + CCN(CC)CCCCNc1ncc2cc(-c3cc(OC)cc(OC)c3)c(NC(=O)NC(C)(C)C)nc2n1 [PD173074] (first compound 0.1 µM, partner dose 0.5 µM), the cell count in the test with SkMel30 was found to be 84.6%; with SkMel5, 66.4%; with UACC257, 99%; with UACC62, 98.5%; in the test on WM115, 81.6%; with WM1716 it was 98.4%. Also, the cell count was determined as 82.5% in the test with WM1745, 84.6% in the test on WM3526, 59.2% with WM3619 and 75.7% with WM451Lu.
Turning to `COc1ccc(COc2ccc(Cc3cnc(N)nc3N)cc2OC)cc1` + O=c1cc(-c2cccc3c2Sc2ccccc2S3)oc(N2CCOCC2)c1 [KU55933] (first compound 5 µM, partner dose 5 µM), the cell count with SkMel30 amounted to 79.3%; in the test with SkMel5 it was 92.4%; in the test with UACC257, 80.6%; with UACC62 it was 71%; in the test on WM115 it was 98.7%; in the test with WM1716, 91.2%. Moreover, the cell count in the test with WM1745 worked out at 59.6%; in the test on WM3526, 81.3%; with WM3619, 67.4%; in the test on WM451Lu, 84.3%.
